The list shows a part of the results. The list includes weakly bound sequences.
biological target: MaxL homodimer (UniProt P61244); test: universal protein-binding microarray (PBM); conditions: PBS-based mixture, 10 nM His-tagged protein dimer, 2% milk, 200 ng/uL BSA, 50 ng/uL salmon testes DNA, 0.02% TX-100; detection with Alexa 488 anti-His …; high values mean tight binding; most listed sequences are background and not binding sites; double strand, one strand shown
UniProt P61244, sequence (P61244 whole entry): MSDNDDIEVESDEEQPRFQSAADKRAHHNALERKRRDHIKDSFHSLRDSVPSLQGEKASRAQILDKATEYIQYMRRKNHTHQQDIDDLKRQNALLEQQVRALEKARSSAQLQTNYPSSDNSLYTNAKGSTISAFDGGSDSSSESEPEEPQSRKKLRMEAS

Sequence	binding signal (normalized occupancy)
CTTGGTCA	0.0735
GGTCCACC	0.0747
ATTGTTCC	0.071
CACTCGCC	0.0795
GTCGGAAA	0.0697
AGGTCCCA	0.0777
GGAGCGAA	0.0664
ACGAAAAA	0.0756
CAAACAAG	0.0708
ACCTGTAC	0.0799
AATAGCAA	0.0783
AACTTGAG	0.0767
CTTCCAAC	0.0716
GCTTCTAC	0.0736
CACGTGGA	0.768
CGAGATGA	0.0745
AAACGCTT	0.0713
CCACAAAG	0.0704
AACTTATG	0.0772
CTTTGTCA	0.0757
GCCGTGCA	0.0768
CGCGCACA	0.0822
GACACTTA	0.0771
AGCCACAG	0.0728
AGGACCAC	0.0765

Sequence	binding signal (normalized occupancy)
CAGGTCCC	0.0743
ACCAGGAC	0.0717
AACGGGGA	0.0725
ACTCGGTC	0.0738
ACCCGGTG	0.0769
ACAAAGAC	0.07
CGTGCAGA	0.0896
AACTTTTC	0.0762
GACATGAA	0.0775
ACAACAGG	0.074
TCTTTGCA	0.0756
CTGGAAAG	0.0676
GCTTCCGA	0.0699
CCCCGAGA	0.0768
ACGACACA	0.0758
GTTAATTA	0.0767
ATTTACCC	0.0798
GATGCTGC	0.078
CTCCGCAC	0.0692
GTATCCTA	0.0721
AAAGTATT	0.0739
ACTCCCCT	0.0719
ACAAAACG	0.0797
GTCGTTTA	0.0732
CGTGAAGA	0.0801

Sequence	binding signal (normalized occupancy)
AGCTGTAT	0.075
GCCGTAGC	0.0677
ATCGCCGG	0.0665
GAATAGGA	0.0763
ACGAAGGA	0.0734
CATGGGGC	0.0935
CCAATCCC	0.0814
TATCTCCA	0.0757
CCGCAACA	0.0775
TGACGTCA	0.0925
ACTATTTG	0.0747
ACTAGCGC	0.0701
AGGAAACA	0.0721
CAGATGAG	0.0786
ACATCAGC	0.0817
AAAAAATC	0.0743
CGGAGAGC	0.072
CGCCGCGC	0.0775
GAGGCAAC	0.0759
CGATCGCG	0.0735
GCGACGTA	0.0777
ATAAAAGG	0.0778
ACTGGAGG	0.0727
AAAGGATC	0.0735
GATGCACC	0.0775

Sequence	binding signal (normalized occupancy)
CTTTGCGA	0.0718
GAGCTAAC	0.0666
AGATCCGG	0.0735
CGCCTAAC	0.0704
AGCTGCTA	0.0731
AAACAAGT	0.0719
ACACGAAG	0.0713
CGGGCAGC	0.0655
CTAATTTC	0.0739
CTAAACGC	0.0744
ACCCTGTC	0.075
CTACATTC	0.0756
ACTGTTTA	0.0699
CTACTAGA	0.0787
ACCAGGCA	0.0736
TCATCCCA	0.0787
CAAAAGTC	0.0669
ATCGCAGG	0.0683
CCATGAAG	0.0784
CGACCTCG	0.0723
CTGAGCTC	0.0672
ACGTCTAA	0.0724
GAATTCTA	0.0768
GTGATGGA	0.08
AACTACAC	0.0819

Sequence	binding signal (normalized occupancy)
GCACCAAC	0.0757
CACCTGGG	0.0841
CGTTTAGA	0.0747
CCTCTACA	0.0806
AATGAGCC	0.0755
ACTATACT	0.0795
CACGAGTA	0.103
ATGCAAAC	0.0833
AAGATTCC	0.0846
ACAACAGA	0.0735
CCAAGACG	0.0722
ATAGTACC	0.0781
GCCTTACA	0.0739
AAGCGATC	0.0682
ATCAAAAT	0.0754
CCCCTTGA	0.0791
CGAGTACG	0.0713
CTACGTTA	0.0743
ATTCCCCG	0.0752
ATCTGACA	0.0776
TCGCCTAA	0.0717
AGTTCCTA	0.0689
GGAGTAAC	0.0708
CGGAGCAA	0.068
AAGACATA	0.0762

Sequence	binding signal (normalized occupancy)
CCCGTCGG	0.0689
GGCCCGAC	0.064
GACCGTAA	0.0697
CCATTGAA	0.0748
AAATACCT	0.0775
GAAAGCAC	0.0797
ACACGTAG	0.0822
ACATCTTG	0.0773
ACTGCTGG	0.0688
TGCCCAAA	0.0731
GGTGGACA	0.0773
GCTTACCC	0.0711
CACCTAGG	0.0742
GCGTACAC	0.0822
ATAGTCAT	0.0846
GGCTCCCA	0.0719
AGTCCTTA	0.0728
CGAACATA	0.0805
GGTAAGAA	0.0778
ATGCTTCA	0.0847
ACTCATAC	0.074
AGAAAAGG	0.0723
GCTGAAGC	0.0688
AACGGAAG	0.0666
AAGGGGCT	0.0751

Sequence	binding signal (normalized occupancy)
CGACCCAC	0.0808
CGATACCC	0.0786
ACTTGCGC	0.071
ACGCGCTA	0.0816
AGGAGTTC	0.0754
GCAAGGGC	0.0695
ATGAAATA	0.0816
GTCCTCTA	0.0658
ATGATGTA	0.0862
CTACGGCC	0.0847
ACTGATTA	0.0778
ACAAACTC	0.0717
CCCAAACC	0.0685
AGGAGCCT	0.0674
GGGTGTAA	0.0766
GTTAAATA	0.0807
TCTGGGCA	0.0693
GAGCGACC	0.0707
AGGCTGCG	0.0631
GAAATACA	0.0759
GGATATTA	0.0779
AGATGAAC	0.0822
ATACCCGG	0.0704
ACACTCAC	0.075
GAACAGTC	0.0727

Sequence	binding signal (normalized occupancy)
CTCTAAAG	0.0656
CGCGGCGA	0.0704
AACCTGAG	0.0732
ACGTTGTA	0.0845
ACCGTCCA	0.0727
CTGCGTGA	0.0818
GGTTAATA	0.0754
GGTTCTGA	0.074
GACCGGGA	0.0679
AACGGAAT	0.0769
AAATAGCC	0.076
AATAGGTC	0.0778
GTTTCCAA	0.0724
CAACCAAC	0.0739
CGCGTTTC	0.0778
CAATTTCA	0.0751
ACACTTCA	0.0766
CAAACCGC	0.0686
AAACACGC	0.0929
CTAGCCTC	0.076
AATGATCT	0.0828
AAGCGCTT	0.0738
AGTCCATA	0.0814
ACGCACGC	0.109
AAACTCCT	0.0732

Sequence	binding signal (normalized occupancy)
AAGTTACT	0.0735
CACCGGAG	0.0649
CTCAGTCA	0.0715
TCTCCCAA	0.0757
AACTATAT	0.0879
CAACAAAC	0.0754
AACCTCCG	0.071
CACATACA	0.0875
CAGCTAGC	0.0696
AAACTCAA	0.0694
CTCTCAAG	0.0693
CCCTTCAA	0.0725
AGCCCCGA	0.0668
ACGCGTTA	0.0897
GGACATAC	0.0791
AACAACAG	0.0691
GGCTCATA	0.0797
CCCGGCCC	0.0674
GGTGCGAC	0.0748
CGGAAAAA	0.0709
AAGTTGAC	0.0728
GGTTTGAC	0.0732
AGAACCTC	0.0745
AGACCTTC	0.0725
CGGCATCC	0.078

Sequence	binding signal (normalized occupancy)
AAGGTGTG	0.0881
CGCCTCTA	0.0741
ACGCGCAT	0.0874
CGTACGCC	0.0757
GTCAACGA	0.0765
ATAAGAAT	0.0831
CTGTTTGC	0.0759
ACGTTCGC	0.0729
GAGAGGGC	0.0657
GATTGAGA	0.0788
CCCTCGGC	0.0655
AATTACTA	0.0717
AACAACAT	0.0756
CGCCCTCA	0.0774
ATGTCTGG	0.0823
ATTTAAGA	0.0746
AGATCATA	0.082
GGGCCTCA	0.0699
CAACACGG	0.0817
GGTCTAGA	0.0765
CGCATGGC	0.127
CACGATCC	0.0764
ATCGCGAT	0.0742
CCTAGAGC	0.0678
AGTACGAG	0.0727

Sequence	binding signal (normalized occupancy)
CCTAGTGC	0.0733
CCGGTTCA	0.0669
ACACAGCT	0.0751
GCTCCGCA	0.0692
GAACGATA	0.0795
GATACATC	0.0834
GGACTTGA	0.0817
AGAGCCAG	0.0757
CCGCTCAA	0.0717
GGACTCCA	0.0762
CTTGCGGA	0.0728
GCGTAAGA	0.07
GGACCCAA	0.0726
GTCCCAAA	0.0716
AGAATTAT	0.0775
ATCTCATG	0.0945
ATCCCCAC	0.0813
ACCCAACG	0.0755
ATGCGTCC	0.0782
ACGGGTAC	0.0821
CTAACTAA	0.0746
ATAGCATC	0.0799
CCGCACGC	0.0999
CTGTGAAG	0.0738
ATAGTAGG	0.0788

Sequence	binding signal (normalized occupancy)
GCTTGAAA	0.0731
ATGATACG	0.0814
CTGGGAAG	0.071
ATACCAGA	0.0758
CCGTAAAC	0.0745
ACCCCGAG	0.0798
GAAAGCGC	0.0724
AGTGAGAC	0.0703
TGATTCCA	0.0829
GTGCTGAA	0.0776
CCGAACGG	0.0662
AAGCGCAG	0.0685
GGATGCCC	0.0714
AAAACTTC	0.067
ATGACGCG	0.0781
GTCTAGCA	0.0721
ACCGAAGT	0.0692
CGGTACCC	0.0711
CTGATTAA	0.0755
GGGAGAGA	0.0795
AATGAAAC	0.0763
GAGGACAC	0.0786
ACTTTTTC	0.0688
AACCAAGC	0.0742
CATTAACC	0.0839

Sequence	binding signal (normalized occupancy)
GCGCGGTA	0.0822
AAACCTCG	0.0717
AAAGGTGG	0.0743
ATTCCTAC	0.0861
CGTATATA	0.082
AGTCAGCC	0.0754
TTGGCAAA	0.0791
AGACCCCG	0.0739
GGATCCTA	0.074
AGCACTAG	0.0703
AGGTTGGC	0.0717
AGGAATCC	0.0758
AACGGTAG	0.0717
CACGAGGC	0.134
TCGAAGCA	0.071
TGCGGGAA	0.068
GCGATCCC	0.0775
AACTGTGG	0.0757
CAGGCATA	0.0804
CTGATAAA	0.076
AATTTAGT	0.072
CGCCGGAA	0.0679
ATTCGTAC	0.0786
CTTCATCC	0.0814
ACTCGTCG	0.0723

Sequence	binding signal (normalized occupancy)
GTAAACTA	0.0715
AATATACC	0.0884
CGCTGTCA	0.0731
CGTACCCA	0.0851
GATGGGGA	0.0824
CAACCTCA	0.0782
TACGGTAA	0.0768
AACCAGCA	0.0771
CACGACTG	0.078
GCCCTTGA	0.0674
CATCGCAG	0.0737
CCGTGCCC	0.0733
CGGTATTC	0.0743
GGACTGAC	0.0682
TACGGGAA	0.0744
AGAGTGGA	0.0795
AGGGCGGC	0.0674
ACGAGTCC	0.0751
CATGGCAA	0.0963

Source: paper PMC4242493
